# Source: paper PMC4336329 (PLoS ONE, 2015)
# The campaign covered roughly 310,000 compounds. About 14,000 (4.5%) showed an effect of 50% or more. Effects have a minus sign here. The list shows a part of the results.
# Molecular target: human ether-à-go-go-related gene (hERG) potassium channel (human, UniProt Q12809)
# Assay: primary screen, population patch clamp on CHO cells stably expressing hERG
# 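Note: peak tail current of the secondary pulse compared with the same well before compound.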
# human ether-à-go-go-related gene (hERG) potassium channel, sequence (Q12809 whole entry, looked up): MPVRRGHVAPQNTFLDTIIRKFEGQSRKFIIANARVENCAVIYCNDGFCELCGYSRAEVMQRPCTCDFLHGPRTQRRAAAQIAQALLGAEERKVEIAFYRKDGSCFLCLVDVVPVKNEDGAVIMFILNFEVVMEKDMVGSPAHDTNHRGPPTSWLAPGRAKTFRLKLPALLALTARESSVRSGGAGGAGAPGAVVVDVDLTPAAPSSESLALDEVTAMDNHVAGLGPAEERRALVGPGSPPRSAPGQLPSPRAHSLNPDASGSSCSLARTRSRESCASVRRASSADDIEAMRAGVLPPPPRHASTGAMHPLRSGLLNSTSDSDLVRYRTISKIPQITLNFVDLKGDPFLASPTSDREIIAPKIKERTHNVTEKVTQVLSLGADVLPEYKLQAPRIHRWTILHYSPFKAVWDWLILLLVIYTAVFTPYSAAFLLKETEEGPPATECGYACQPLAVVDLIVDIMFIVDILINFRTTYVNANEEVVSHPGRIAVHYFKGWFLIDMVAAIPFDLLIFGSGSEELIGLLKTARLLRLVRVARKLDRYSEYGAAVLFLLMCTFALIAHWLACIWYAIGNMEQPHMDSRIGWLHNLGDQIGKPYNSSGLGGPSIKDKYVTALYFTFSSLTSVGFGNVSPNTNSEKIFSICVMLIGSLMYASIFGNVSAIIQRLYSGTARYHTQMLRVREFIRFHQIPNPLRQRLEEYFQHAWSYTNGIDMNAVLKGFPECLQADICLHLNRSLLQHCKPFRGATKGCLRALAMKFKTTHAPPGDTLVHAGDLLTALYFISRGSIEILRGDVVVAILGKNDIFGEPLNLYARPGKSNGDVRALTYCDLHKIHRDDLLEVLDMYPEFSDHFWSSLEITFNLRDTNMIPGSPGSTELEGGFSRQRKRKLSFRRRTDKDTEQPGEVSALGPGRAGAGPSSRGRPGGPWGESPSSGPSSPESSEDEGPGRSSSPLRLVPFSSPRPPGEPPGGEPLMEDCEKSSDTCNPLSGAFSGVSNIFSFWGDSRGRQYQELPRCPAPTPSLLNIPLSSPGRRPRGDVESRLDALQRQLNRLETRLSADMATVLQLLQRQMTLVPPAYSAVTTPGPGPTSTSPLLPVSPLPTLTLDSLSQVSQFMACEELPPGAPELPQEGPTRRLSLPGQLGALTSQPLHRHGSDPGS
row,Structure (SMILES),"hERG current change (%, negative = inhibition) at 10uM [%]"
1,Cc1ccc2c(c1)N(CCC(=O)NCC1CCCO1)C(=O)CO2 (stereo not shown),-0.659
2,O=C(Nc1cccc(S(=O)(=O)N2CCCCC2)c1)c1ccc(S(=O)(=O)C(F)F)cc1,-18.4
3,COC(=O)c1ccc(COn2nnc3ccccc32)cc1,3.98
4,CCOC(=O)N1CCC(NC(=O)Cn2nc(-c3ccccc3)ccc2=O)CC1,1.27
5,COc1ccc([C@H]2CC(=O)C=C(c3cccc4c3Oc3ccccc3S4)C2)cc1,-28.4
6,COc1ccc(CNc2nc(SC)n[nH]2)cc1OC,13.8
7,CN(C)c1nnnn1Cc1ccc(Cl)cc1Cl,-2.12
8,Cn1c(CN2CCOCC2)nnc1SCC(=O)Nc1ccc([N+](=O)[O-])cc1O,15.8
9,CN(C)S(=O)(=O)c1cccc(C(=O)Nc2n[nH]c(C(F)(F)F)n2)c1,13.1
10,O=C(CS(=O)(=O)Cc1ccccc1)NCc1ccccc1Cl,5.16
11,O=C(Nc1ccc(F)cc1F)c1cc(-c2ccco2)on1,-5.36
12,COc1ccccc1OC(=O)CCN1c2ccccc2Sc2ccccc21,10.5
13,CCOc1ccccc1N1CCN(c2nc(N)c(C#N)c(CC#N)c2C#N)CC1,-37.2
14,COc1ccc(C2=C(CC(=O)O)C(=O)CC2)cc1,11.6
15,CN(C)/C=C1\N=C(c2cccnc2Oc2ccc(Cl)cc2)OC1=O,-7.31
16,COc1ccccc1C(NC(=O)C1CCCCC1)c1c(O)ccc2ccccc12 (stereo not shown),0.426
17,CC1Sc2ccc(S(=O)(=O)CCC(=O)N3CCCCC3)cc2NC1=O (stereo not shown),14.2
18,N#Cc1c(-c2ccco2)nc(SCC(=O)Nc2cccc(Cl)c2)[nH]c1=O,-0.00632
19,Cc1ccc(C(=O)N2CCOCC2)cc1S(=O)(=O)N1CCOCC1,17.1
20,COc1ccccc1CNC(=O)CSc1ccc(C)cc1,-10.3
21,O=C(NNS(=O)(=O)c1ccc(Br)cc1)NC1CCCCC1,7.63
22,CCOc1ccccc1/C=C/c1onc(C)c1S(=O)(=O)N1CCC(C(=O)NC(C)C)CC1,15.4

row,Structure (SMILES),"hERG current change (%, negative = inhibition) at 10uM [%]"
1,O=C(Cc1ccc(-c2ccccc2)cc1)OCC(=O)N1CCCC1=O,8.71
2,COC(=O)c1cc2c(cc1N)OCCO2,25.5
3,CCCc1noc2c1/C(=N\O)CC(c1ccccc1)C2 (stereo not shown),8.36
4,COC(=O)C(C(=O)Nc1cccc(C)n1)C1CCCCCC1 (stereo not shown),-11.1
5,Cc1cc(C(=O)NNS(=O)(=O)c2cc(C(=O)O)ccc2Cl)c(C)n1-c1ccccc1,7.06
6,CCOC(=O)c1ccccc1NC(=O)Nc1ccc(OC)c(OC)c1,-3.16
7,CC1CCC(Nc2nnnn2-c2ccccc2)CC1 (stereo not shown),12.2
8,O=C(COC(=O)CCN1C(=O)c2cccc([N+](=O)[O-])c2C1=O)NCc1ccccc1,52.6
9,Brc1cccc(CSc2nnc(-c3ccncc3)o2)c1,-34.2
10,CCOC(=O)c1sc(-n2[nH]c(C)cc2=O)nc1C,6.98
11,COC(=O)C1=C(c2cccc(C#N)c2)C[C@@H]2CC[C@H]1N2C(=O)NCC1CC1,10.9
12,CCOc1ccc(CCNC(=O)c2cc3sccc3n2C)cc1OCC,-34.4
13,COc1ccc(/C=N/NC2=NS(=O)(=O)c3ccccc32)cc1OC,27
14,CCc1ccc2nc(NC(=O)C3CCN(c4ncnc5sc(C)c(C)c45)CC3)sc2c1,9.21
15,Cc1oc(CSCCSCc2cc(C(=O)O)c(C)o2)cc1C(=O)O,16.9
16,Brc1ccc(NC(c2ccccc2)c2ccncc2)cc1.Cl (stereo not shown),17
17,COCCN(C(=S)Nc1c(C)cc(C)cc1C)C(C)c1cccnc1 (stereo not shown),-12.1
18,COc1ccc(OC)c(NC(=O)c2cc3ccccc3o2)c1,4.19
19,COc1ccc(CCNC(=O)c2csc3c2CCCC3)cc1OC,18.2
20,CC(C)c1ccc(N2C(=O)NC(=O)/C(=C/C=C/c3ccco3)C2=O)cc1,2.7
21,O=C(CSc1ccc([N+](=O)[O-])cn1)Nc1ccccc1N1CCOCC1,-19.2
22,C=C(C)Cn1c(-c2ccccc2)nc2ccccc21,-64.9

row,Structure (SMILES),"hERG current change (%, negative = inhibition) at 10uM [%]"
1,CC(C)CNS(=O)(=O)c1ccc(CCC(=O)O)cc1,12.5
2,NS(=O)(=O)c1cccc(NC(=O)COC(=O)CCSc2ccccc2)c1,-11.2
3,C[C@H](NC(=O)[C@H]1N2C(=O)c3ccccc3C2SC1(C)C)C(=O)NCC1CCCO1 (stereo partly shown),32.2
4,CN(C)c1ccc(-c2nnc(-c3ccc(S(=O)(=O)C(F)F)cc3)o2)cc1,-5.91
5,CC(C)(C)NC(=O)CSc1nnc(-c2ccco2)n1Cc1ccco1,-5.83
6,CC(C)C(=O)NCCc1nc(-c2ccccc2)no1,0.581
7,O=C(Nc1ccnn1C1CCN(C(=O)c2c(F)cccc2F)CC1)C1CC1,13.7
8,CCOCCCNC(=S)N1C2CCC1CC(NC(=O)NC1CCCCC1)C2 (stereo not shown),1.88
9,CC(C)(C)NC(=O)CSc1nncn1NCc1cccc2ccccc12,7.79
10,O=C1NC[C@H](c2ccccc2)N(CCc2cccc(F)c2)C1=O,4.47
11,C#CCOCCOCCOCCNc1nc(N2CCN(C(=O)C([C@@H](C)CC)n3cc(C(N)COC(=O)C(F)(F)F)nn3)CC2)nc(N2CCN(C(=O)[C@H](Cc3cc4ccccc4[nH]3)n3cc(C(N)CO)nn3)CC2)n1.Cl (stereo partly shown),9.56
12,Cc1ccc(NC(=O)c2ccc(OC(=S)N3CCOCC3)cc2)cc1,4.95
13,Cc1ccccc1N1C(=O)c2ccccc2C1O (stereo not shown),20.4
14,CC1CCc2cc(F)ccc2N1C(=O)C12CCC(C)(C(=O)O1)C2(C)C (stereo not shown),-21
15,N#Cc1c(-c2ccncc2)c2c([nH]c1=O)-c1ccccc1OC2,24
16,COc1ccc(N2CCN(c3nc4ccccc4nc3NS(=O)(=O)c3ccccc3)CC2)cc1,1.21
17,O=C(O)c1cccnc1Nc1cccc(C(F)(F)F)c1,28.7
18,COc1ccccc1NC(=O)/C(C#N)=C/c1ccncc1,16.3
19,C/C(=N/Nc1nc(-c2ccccc2)cc(-c2ccc(F)cc2)n1)c1cccc(N)c1,3.2
20,Cc1noc(C)c1COC(=O)COc1cccc2c1OC(C)(C)C2,11
21,CN(C)S(=O)(=O)c1ccc(NC(=O)COC(=O)c2ccccn2)cc1,-1.05
22,CCn1c(SCC(=O)c2ccc(OC)cc2)nnc1C1CC1,6.73

row,Structure (SMILES),"hERG current change (%, negative = inhibition) at 10uM [%]"
1,Cc1nc([N+](=O)[O-])c(C(=O)OCc2ccccc2C#N)n1C,19.4
2,COc1ccc(-n2c(SCC(N)=O)nnc2-c2ccc(NS(=O)(=O)c3ccc(C)cc3)cc2)cc1,19.8
3,CCc1ccccc1NC(=O)c1cccc(Oc2ccc([N+](=O)[O-])cc2Cl)c1,8.99
4,Nc1ncc(Br)cc1S(=O)(=O)NCCC(=O)N1CCN(c2ncccn2)CC1,-25.6
5,Cc1ccc(OCCSc2ncnc3nc[nH]c23)cc1,3.48
6,COc1ccc(Cl)cc1NC(=O)CNc1ccccc1CN(C)C1CCCCC1,-37.9
7,O=C(Nc1ccc(-c2ccc([N+](=O)[O-])cc2)cc1)c1ccccc1F,19.9
8,COCCN(C(=O)Nc1ccc(F)cc1F)c1nc2ccccc2s1,15.8
9,CCOC(=O)C1=C(C)NC(=O)NC1c1ccc(-c2ccccc2F)o1 (stereo not shown),2.79
10,Cc1nnc(SCC(=O)NC(=O)NCCC(C)C)s1,-8.92
11,Cc1ccc(S(=O)(=O)N2CCCC2C(=O)O)s1 (stereo not shown),-4.11
12,COC(=O)c1ccccc1NC(=O)C1CC(=O)N(c2ccc(F)cc2)C1 (stereo not shown),-22
13,CCOc1ncccc1C(=O)OCCCC(=O)c1ccc(Br)cc1,-17.2
14,CCc1ccccc1N(C(=O)Cn1nnc2ccccc21)C(C(=O)NCCOC)c1ccco1 (stereo not shown),-7.99
15,COCCCN(C(=O)Cc1ccc(Cl)c(Cl)c1)c1c(N)n(Cc2ccccc2)c(=O)[nH]c1=O,7.73
16,Cc1cccc(N(CC(=O)Nc2ccccc2-c2ccccc2)S(=O)(=O)c2ccccc2)c1C,6.18
17,CCc1nnc(NC(=O)c2cc(-c3ccccn3)nc3ccccc23)s1,9.25
18,O=C1c2ccccc2C(=O)N1c1ncn[nH]1,11.3
19,COc1ccc(/C(C)=N/NC(=O)c2cccc(S(=O)(=O)N3CCCC3)c2)c(O)c1,16.4
20,Nc1cc(Cl)ccc1C(=O)OCC(=O)NC1CCS(=O)(=O)C1 (stereo not shown),-11.4
21,CCOc1ccccc1NC(=O)COn1nnc2ccccc21,12.4
22,COc1ccc(C2=NN(c3nc(-c4ccccc4)c(CC(=O)O)s3)C(c3ccco3)C2)cc1 (stereo not shown),9.4
